# Data: the supplement of paper PMC8728848
# The other results are listed elsewhere or left out.
# B1: DC-ASGPR S+GEE (Homo sapiens) (protein)
# chain: MTRTYENFQYLENKVKVQGFKNGPLPLQSLLQRLRSGPCHLLLSLGLGLLLLVIICVVGFQNSKFQRDLVTLRTDFSNFTSNTVAEIQALTSQGSSLEETIASLKAEVEGFKQERQAVHSEMLLRVQQLVQDLKKLTCQVATINNNGEEASTEGTCCPVNWVEHQDSCYWFSHSGMSWAEAEKYCQLKNAHLVVINSREEQNFVQKYLGSAYTWMGLSDPEGAWKWVDGTDYATGFQNWKPGQPDDWQGHGLGGGEDCAHFHPDGRWNDDVCQRPYHWVCEAGLGQTSQESH
# Key:
# Test in all cases: glycan array binding signal (z-score within array); higher = stronger binding
# Details in all cases: glycan notation: IUPAC condensed, linker removed
# GalNAc(b1-4)GlcNAc = molecular target: GalNAc(b1-4)GlcNAc
# Procedure, shortened: (§1)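 From the Consortium for Functional Glycomics database, 3228 arrays were curated, keeping only those whose protein sequence was available. Binding is given as a within-array Z-score averaged across arrays sharing a protein sequence and across linkers. Negative Z-scores can be read as non-binding.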
# [1] = molecular target: GalNAc(b1-4)GlcNAc(b1-2)Man
# Procedure, shortened: as §1
# [2] = molecular target: GalNAc(b1-4)GlcNAc(b1-2)Man(a1-3)[GalNAc(b1-4)GlcNAc(b1-2)Man(a1-6)]Man(b1-4)GlcNAc(b1-4)GlcNAc
# Procedure, shortened: as §1
# [3] = molecular target: GalNAc(b1-4)GlcNAc(b1-3)GalNAc(b1-4)GlcNAc
# Procedure, shortened: as §1
# GalNAc(b1-4)GlcNAc6S = molecular target: GalNAc(b1-4)GlcNAc6S
# Procedure, shortened: as §1
# GalNAc(b1-6)GalNAc = molecular target: GalNAc(b1-6)GalNAc
# Procedure, shortened: as §1
# GalNAc3S(b1-4)GlcNAc = molecular target: GalNAc3S(b1-4)GlcNAc
# Procedure, shortened: as §1
# GalNAc3S(b1-4)GlcNAc3S = molecular target: GalNAc3S(b1-4)GlcNAc3S
# Procedure, shortened: as §1
# [4] = molecular target: GalNAc3S(b1-4)[Fuc(a1-3)]GlcNAc
# Procedure, shortened: as §1
# GalNAc4S6S(b1-4)GlcNAc = molecular target: GalNAc4S6S(b1-4)GlcNAc
# Procedure, shortened: as §1
# GalNAc6S(b1-4)GlcNAc = molecular target: GalNAc6S(b1-4)GlcNAc
# Procedure, shortened: as §1
# Glc(a1-4)Glc = molecular target: Glc(a1-4)Glc
# Procedure, shortened: as §1
# [5] = molecular target: Glc(a1-4)Glc(a1-4)Glc(a1-4)Glc
# Procedure, shortened: as §1
# Glc(a1-6)Glc(a1-6)Glc = molecular target: Glc(a1-6)Glc(a1-6)Glc
# Procedure, shortened: as §1
# [6] = molecular target: Glc(a1-6)Glc(a1-6)Glc(a1-6)Glc
# Procedure, shortened: as §1
# Glc(b1-4)Glc = molecular target: Glc(b1-4)Glc
# Procedure, shortened: as §1
# Glc(b1-6)Glc = molecular target: Glc(b1-6)Glc
# Procedure, shortened: as §1
# GlcA(b1-3)Gal = molecular target: GlcA(b1-3)Gal
# Procedure, shortened: as §1
# GlcA(b1-3)GlcNAc = molecular target: GlcA(b1-3)GlcNAc
# Procedure, shortened: as §1
# GlcA(b1-6)Gal = molecular target: GlcA(b1-6)Gal
# Procedure, shortened: as §1
# [7] = molecular target: GlcA3S(b1-3)Gal(b1-4)GlcNAc(b1-2)Man
# Procedure, shortened: as §1
# [8] = molecular target: GlcA3S(b1-3)Gal(b1-4)GlcNAc(b1-3)Gal(b1-4)Glc
# Procedure, shortened: as §1
# [9] = molecular target: GlcNAc(a1-3)Gal(b1-4)GlcNAc
# Procedure, shortened: as §1
# [10] = molecular target: GlcNAc(a1-4)Gal(b1-3)GlcNAc
# Procedure, shortened: as §1
# [11] = molecular target: GlcNAc(a1-4)Gal(b1-4)GalNAc
# Procedure, shortened: as §1
# [12] = molecular target: GlcNAc(a1-4)Gal(b1-4)GlcNAc
# Procedure, shortened: as §1
# [13] = molecular target: GlcNAc(a1-4)Gal(b1-4)GlcNAc(b1-3)Gal(b1-4)Glc
# Procedure, shortened: as §1
# [14] = molecular target: GlcNAc(a1-4)Gal(b1-4)GlcNAc(b1-3)Gal(b1-4)GlcNAc
# Procedure, shortened: as §1
# [15] = molecular target: GlcNAc(a1-4)Gal(b1-4)GlcNAc(b1-3)Gal(b1-4)GlcNAc(b1-3)Gal(b1-4)GlcNAc
# Procedure, shortened: as §1
# [16] = molecular target: GlcNAc(a1-4)Gal(b1-4)GlcNAc(b1-3)Gal(b1-4)[Fuc(a1-3)]GlcNAc(b1-3)Gal(b1-4)[Fuc(a1-3)]GlcNAc
# Procedure, shortened: as §1
# [17] = molecular target: GlcNAc(a1-6)Gal(b1-4)GlcNAc
# Procedure, shortened: as §1
# [18] = molecular target: GlcNAc(b1-2)Gal(b1-3)GalNAc
# Procedure, shortened: as §1
# [19] = molecular target: GlcNAc(b1-2)Man(a1-3)[GlcNAc(b1-2)Man(a1-6)]Man(b1-4)GlcNAc(b1-4)GlcNAc
# Procedure, shortened: as §1
# [20] = molecular target: GlcNAc(b1-2)Man(a1-3)[GlcNAc(b1-2)Man(a1-6)]Man(b1-4)GlcNAc(b1-4)[Fuc(a1-6)]GlcNAc
# Procedure, shortened: as §1
# [21] = molecular target: GlcNAc(b1-2)Man(a1-3)[GlcNAc(b1-4)][GlcNAc(b1-2)Man(a1-6)]Man(b1-4)GlcNAc(b1-4)GlcNAc
# Procedure, shortened: as §1
# [22] = molecular target: GlcNAc(b1-2)Man(a1-3)[GlcNAc(b1-4)][GlcNAc(b1-2)Man(a1-6)]Man(b1-4)GlcNAc(b1-4)[Fuc(a1-6)]GlcNAc
# Procedure, shortened: as §1
# [23] = molecular target: GlcNAc(b1-2)[GlcNAc(b1-4)]Man(a1-3)[GlcNAc(b1-2)Man(a1-6)]Man(b1-4)GlcNAc(b1-4)GlcNAc
# Procedure, shortened: as §1
# [24] = molecular target: GlcNAc(b1-2)[GlcNAc(b1-4)]Man(a1-3)[GlcNAc(b1-4)][GlcNAc(b1-2)Man(a1-6)]Man(b1-4)GlcNAc(b1-4)GlcNAc
# Procedure, shortened: as §1
# [25] = molecular target: GlcNAc(b1-2)[GlcNAc(b1-4)]Man(a1-3)[GlcNAc(b1-4)][GlcNAc(b1-2)[GlcNAc(b1-6)]Man(a1-6)]Man(b1-4)GlcNAc(b1-4)GlcNAc
# Procedure, shortened: as §1
# [26] = molecular target: GlcNAc(b1-2)[GlcNAc(b1-4)]Man(a1-3)[GlcNAc(b1-4)][GlcNAc(b1-2)[GlcNAc(b1-6)]Man(a1-6)]Man(b1-4)GlcNAc(b1-4)[Fuc(a1-6)]GlcNAc
# Procedure, shortened: as §1
# [27] = molecular target: GlcNAc(b1-2)[GlcNAc(b1-6)]Man(a1-6)[GlcNAc(b1-2)Man(a1-3)]Man(b1-4)GlcNAc(b1-4)GlcNAc
# Procedure, shortened: as §1
# [28] = molecular target: GlcNAc(b1-2)[GlcNAc(b1-6)]Man(a1-6)[GlcNAc(b1-2)Man(a1-3)]Man(b1-4)GlcNAc(b1-4)[Fuc(a1-6)]GlcNAc
# Procedure, shortened: as §1
# [29] = molecular target: GlcNAc(b1-2)[GlcNAc(b1-6)]Man(a1-6)[GlcNAc(b1-4)][GlcNAc(b1-2)Man(a1-3)]Man(b1-4)GlcNAc(b1-4)GlcNAc
# Procedure, shortened: as §1
# GlcNAc(b1-3)Fuc = molecular target: GlcNAc(b1-3)Fuc
# Procedure, shortened: as §1
# GlcNAc(b1-3)Gal = molecular target: GlcNAc(b1-3)Gal
# Procedure, shortened: as §1
binder,measurement,setting,value
B1,glycan array binding signal (z-score),GalNAc(b1-4)GlcNAc,2.76
same,glycan array binding signal (z-score),[1],2.7
same,glycan array binding signal (z-score),[2],0.801
same,glycan array binding signal (z-score),[3],3.84
same,glycan array binding signal (z-score),GalNAc(b1-4)GlcNAc6S,3.14
same,glycan array binding signal (z-score),GalNAc(b1-6)GalNAc,-0.388
same,glycan array binding signal (z-score),GalNAc3S(b1-4)GlcNAc,-0.351
same,glycan array binding signal (z-score),GalNAc3S(b1-4)GlcNAc3S,-0.283
same,glycan array binding signal (z-score),[4],-0.27
same,glycan array binding signal (z-score),GalNAc4S6S(b1-4)GlcNAc,-0.288
same,glycan array binding signal (z-score),GalNAc6S(b1-4)GlcNAc,2.73
same,glycan array binding signal (z-score),Glc(a1-4)Glc,-0.342
same,glycan array binding signal (z-score),[5],-0.35
same,glycan array binding signal (z-score),Glc(a1-6)Glc(a1-6)Glc,0.193
same,glycan array binding signal (z-score),[6],0.001
same,glycan array binding signal (z-score),Glc(b1-4)Glc,-0.376
same,glycan array binding signal (z-score),Glc(b1-6)Glc,-0.268
same,glycan array binding signal (z-score),GlcA(b1-3)Gal,-0.236
same,glycan array binding signal (z-score),GlcA(b1-3)GlcNAc,-0.36
same,glycan array binding signal (z-score),GlcA(b1-6)Gal,-0.429
same,glycan array binding signal (z-score),[7],-0.4
same,glycan array binding signal (z-score),[8],-0.302
same,glycan array binding signal (z-score),[9],-0.318
same,glycan array binding signal (z-score),[10],-0.328
same,glycan array binding signal (z-score),[11],-0.318
same,glycan array binding signal (z-score),[12],-0.318
same,glycan array binding signal (z-score),[13],-0.278
same,glycan array binding signal (z-score),[14],-0.296
same,glycan array binding signal (z-score),[15],-0.289
same,glycan array binding signal (z-score),[16],-0.313
same,glycan array binding signal (z-score),[17],-0.341
same,glycan array binding signal (z-score),[18],-0.31
same,glycan array binding signal (z-score),[19],-0.285
same,glycan array binding signal (z-score),[20],-0.306
same,glycan array binding signal (z-score),[21],-0.118
same,glycan array binding signal (z-score),[22],-0.282
same,glycan array binding signal (z-score),[23],-0.463
same,glycan array binding signal (z-score),[24],-0.304
same,glycan array binding signal (z-score),[25],-0.324
same,glycan array binding signal (z-score),[26],-0.308
same,glycan array binding signal (z-score),[27],0.042
same,glycan array binding signal (z-score),[28],-0.082
same,glycan array binding signal (z-score),[29],-0.317
same,glycan array binding signal (z-score),GlcNAc(b1-3)Fuc,-0.328
same,glycan array binding signal (z-score),GlcNAc(b1-3)Gal,-0.293
